# Out of some 94,000 compounds screened, about 4,000 (4.3%) were called active. The inconclusive results got no clear call from the source; some entries with a clear call stand among them for comparison. Calls follow the shape of the dose curve; as a rule, active = well fitted inhibition curve with a large enough effect; inconclusive = small, poorly fitted or top-dose-only effect; inactive = no such curve, though single readings can be large or run the other way. A potency beside an inconclusive call is a rough fit, not a confirmed value.
# Assay: Cytotoxic Profiling in NIH 3T3 Cell Line of Diverse Libraries Using Quantitative High-Throughput Screening; also: nearly all actives have a fitted effect of over 55% in size
# Details: NIH 3T3 viability, CellTiter-Glo ATP luminescence, 48-72 h; series mostly up to 96.7 µM
# Outline: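 Viability of NIH 3T3 cells after 48 or 72 hr compound treatment at 37 °C was assessed by CellTiter-Glo, with luminescence imaged following a 10 min room-temperature step.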
# Potency is read from the fitted curve at half-maximal effect; tags tell the direction and shape of the fitted curve.
row,Compound,Potency
1,CC(C)(C)NC(=O)N1CCCC1c1nc(CCOCC2CCCC2)no1 (centres undefined),inactive
2,COc1ccc(Cc2nnc3ccc(C(=O)N4CCN(Cc5ccccc5)CC4)cn23)cc1,"inconclusive: 44.7 µM [inhibitor, partial curve, poor fit]"
3,COc1ccccc1Nc1ccnc(N2CCCC(C(=O)NCCc3ccc(F)cc3)C2)n1 (centres undefined),"inconclusive: 14.1 µM [inhibitor, full curve, poor fit]"
4,CCOc1ccccc1CCCN1CC2(CCNCC2)CCC1=O,"inconclusive: 56.2 µM [inhibitor, partial curve, poor fit]"
5,O=C(c1ccc(C(F)(F)F)cc1)N1CCC2(C1)C(=NC1CCCCC1)NC(=O)N2c1cccnc1 (centres undefined),inactive
6,CCC(C(=O)N1CCN(c2cc(C(F)(F)F)ncn2)CC1)c1ccccc1 (centres undefined),"inconclusive: 44.7 µM [inhibitor, partial curve, poor fit]"
7,Cc1cc2nc3n(c(=O)c2n1CC(=O)NCCc1ccc(Cl)cc1)CCCCC3,"inconclusive: 70.8 µM [inhibitor, single point]"
8,COc1ccc(-c2cccc(CN)c2)cc1,"inconclusive: 100 µM [inhibitor, partial curve]"
9,CN(Cc1cccc(C(F)(F)F)c1)Cc1ccccn1,inactive
10,CC(=O)N1CCC(C2CCN(C(=O)c3cccc(C#N)c3)C2)CC1 (centres undefined),inactive
11,Cc1ccccc1CN1Cc2nc(-c3c(C)noc3C)ccc2OCC1=O,"inconclusive: 79.4 µM [inhibitor, partial curve]"
12,CC(C)CC(=O)N1C[C@H](C(N)=O)[C@H]2c3ccccc3N(C)C(=O)[C@]21C,inactive
13,Cc1nc(N(C)C)ncc1C(=O)NC(C(=O)O)c1c(C)n[nH]c1C (centres undefined),"inconclusive: 39.8 µM [inhibitor, full curve, poor fit]"
14,CCCCn1c(CN(C)Cc2[nH]c3ccccc3c2C)cnc1S(=O)(=O)CC,"inconclusive: 50.1 µM [inhibitor, partial curve, poor fit]"
15,Cn1cccc1C(=O)N1CCC(n2cc(-c3nc(C4CC4)no3)nn2)C1 (centres undefined),inactive
16,Cc1nc(C)c(C(=O)N2CCCCCCNC(=O)[C@@H]3CCCC[C@@H]32)s1,inactive
17,O=c1n(-c2ccc(F)cc2F)nc2n1CCN(Cc1ccccc1)C2,active: 6.31 µM
18,COc1ccc(Cn2c(C3CCN(C(=O)Cc4ccccc4OC)CC3)n[nH]c2=O)cc1,"inconclusive: 22.4 µM [inhibitor, full curve, poor fit]"
19,CCCCn1c(=O)c(C(=O)NCCOC)nc2cccnc21,inactive
20,COc1ccc(NC(=O)N2Cc3[nH]cnc3C[C@H]2c2nc(-c3ccccc3)no2)cc1,active: 31.6 µM
21,CN(Cc1cc(C[C@H]2CNCC[C@H]2CC(=O)N2CCN(c3ccccc3)CC2)no1)c1ccccc1,active: 20 µM
22,O=C(CC1CCCCN(Cc2ccccc2)C1=O)Nc1ccc(F)cc1F (centres undefined),inactive

row,Compound,Potency
1,CN1CCN(C(=O)CCC[C@@H]2[C@H]3CCCN4CCC[C@@H](CN2Cc2ccccc2)[C@@H]34)CC1,inactive
2,Cc1cc(C(=O)N2[C@@H]3CC[C@H]2CC(NC(=O)c2ccc(F)cc2)C3)nn1C (some centres undefined),inactive
3,COc1cccc(-c2cccc(C(=O)N3CCN(C(=O)NC4CCCC4)CC3)c2)c1,"inconclusive: 39.8 µM [inhibitor, partial curve]"
4,O=C(c1ccc(Cl)nc1)N1CCC2(CC1)C(=O)NCN2Cc1ccc(Cl)cc1,inactive
5,COC[C@@H]1CN(C(=O)c2cccc(C#N)c2)C[C@H]1c1nc(C2CC2)no1,"inconclusive: 56.2 µM [inhibitor, partial curve, poor fit]"
6,O=C1CCN(CC(O)Cc2ccccc2)c2ccsc2CN1Cc1ccccc1 (centres undefined),"inconclusive: 79.4 µM [inhibitor, partial curve, poor fit]"
7,COc1ncccc1-c1nccc2c(=O)cc(N3CCOCC3)oc12,active: 50.1 µM
8,CS(=O)(=O)N1CCC(OC2CCN(C(=O)Nc3ccccc3C(F)(F)F)CC2)CC1,inactive
9,CCc1ccc(CN2CCC3(CC2)Cc2ccccc2CNC3=O)s1,"inconclusive: 25.1 µM [inhibitor, partial curve, poor fit]"
10,CC(=O)Nc1ccc(C(=O)N2CCCN(c3cc(-c4ccc(Cl)cc4)[nH]n3)CC2)cc1,inactive
11,COc1ccccc1-c1cc2c(ccn2Cc2ccncc2)c(N2CCOCC2)n1,"inconclusive: 39.8 µM [inhibitor, partial curve, poor fit]"
12,O=[S+]1([O-])NC2(CCCN(Cc3ccc(C(F)(F)F)cc3)C2)COc2ccccc21 (centres undefined),"inconclusive: 50.1 µM [inhibitor, partial curve, poor fit]"
13,O=C(Nc1cccc(Cl)c1)C1CCN(c2cc(C(F)(F)F)ncn2)CC1,"inconclusive: 31.6 µM [inhibitor, partial curve]"
14,CNC(=O)c1ccc(C2CCCN2C(=O)CCc2cc3n(n2)CCCNC3)s1 (centres undefined),inactive
15,Cc1cc(C)cc(-c2ccc(CN3CCCC3C(=O)NCC(F)(F)F)cc2)c1 (centres undefined),"inconclusive: 50.1 µM [inhibitor, partial curve, poor fit]"
16,OC1(CN2CCN(C(c3ccccc3)c3ccccc3)CC2)CNCCOC1 (centres undefined),"inconclusive: 50.1 µM [inhibitor, partial curve, poor fit]"
17,Cc1ccc(-c2nnc3ccc(N4CCCCC4)nn23)nc1,"inconclusive: 28.2 µM [inhibitor, full curve, poor fit]"
18,COc1ccc(C(=O)N2CCC3(CC2)NC(=O)N(Cc2ccc(F)cc2)C3=O)c(C)c1,"inconclusive: 31.6 µM [inhibitor, partial curve, poor fit]"
19,CCOc1ccc(NC(=O)CC2CCCN(c3cnn(CC4CC4)c(=O)c3)C2)cc1 (centres undefined),inactive
20,c1ccc(CNc2cc(-c3cc(N4CCCCC4)ncn3)c3cc[nH]c3n2)nc1,"inconclusive: 89.1 µM [inhibitor, single point]"
21,O=C1Cc2c(-c3cccc(CO)c3)n[nH]c2CN1CC1CC1,"inconclusive: 112 µM [inhibitor, single point]"
22,O=C(Cc1ccc(N(Cc2ccccc2)C(=O)c2ccco2)cc1)Nc1ccccc1,"inconclusive: 44.7 µM [inhibitor, partial curve, poor fit]"
